# Test results published in PubChem BioAssay AID1346428 (National Center for Advancing Translational Sciences (NCATS), 2018).
# Values joined by “and” are separate entries in the source; they are usually repeats but may differ in a detail not shown here. Equal values may be shown once. The whole screen tested about 48,000 compounds, of which about 1,200 (2.5%) were called active. About 2% were inconclusive and are not listed.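 How the source made its calls: active means activation of at least 60% and not above a set upper limit (about 1 call in 100 departs from these limits); inconclusive means activation of 40% to 60%, or above that upper limit; inactive means activation under 40%.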 The list shows a part of the results.
# Molecular target: Probable G-protein coupled receptor 32 (Homo sapiens) (UniProt O75388)
# UniProt O75388, sequence (O75388 whole entry, looked up): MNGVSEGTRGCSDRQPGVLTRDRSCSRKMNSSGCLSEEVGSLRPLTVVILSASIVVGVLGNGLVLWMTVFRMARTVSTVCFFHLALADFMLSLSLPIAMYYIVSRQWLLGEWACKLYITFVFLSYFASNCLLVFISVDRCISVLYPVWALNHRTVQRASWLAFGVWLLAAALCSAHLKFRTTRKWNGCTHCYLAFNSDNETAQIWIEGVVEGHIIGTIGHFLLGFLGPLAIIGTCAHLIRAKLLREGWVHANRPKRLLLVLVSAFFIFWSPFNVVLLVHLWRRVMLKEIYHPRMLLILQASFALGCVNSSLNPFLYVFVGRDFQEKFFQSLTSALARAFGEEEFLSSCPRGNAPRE
# Test: qHTS for Agonists of Human Resolvin D1 Receptor DRV1; further: 0% is about no effect
# Settings: CHO-K1 GPR32 beta-arrestin PathHunter luminescence, 90 min; at 76.9 µM; stronger effect = higher value; zero percent set by DMSO-only wells
# Outline: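 PathHunter beta-arrestin recruitment in CHO-K1 cells stably expressing ProLink-tagged GPR32. Cells were exposed to compound for 90 min at 37 C, then chemiluminescence was read after 1 h detection at ambient temperature; DMSO served as basal control.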
row,SMILES,activation
1,COc1ccc(CNC(=O)Cc2c(C)c3cc4c(C)coc4cc3oc2=O)cc1OC,inactive: -11.9%
2,COc1ccc(C2c3[nH]c4ccccc4c3CCN2C(=O)CCC2CCCC2)cc1 (stereo not drawn),inactive: -40.7%
3,CCN(CC)C(=O)c1sc2c(c1C)c(=O)n(-c1ccc(C)c(C)c1)c(=O)n2Cc1cc(=O)n2ccccc2n1,inactive: -7.81%
4,COc1ccc(-c2nc3scc(CCNS(=O)(=O)c4ccc(Oc5ccccc5)cc4)n3n2)cc1OC,inactive: -16.8%
5,Cc1ccsc1CCN1C(=O)N(c2ccccc2)C(=O)C1CC(=O)Nc1ccc(Cl)cc1 (stereo not drawn),inactive: 1.05%
6,CC(=O)c1cccc(NC(=O)Nc2sc3nc4n(c(=O)c3c2C)CCC(C)CC4)c1 (stereo not drawn),inactive: -6.98%
7,CCN(CC)C(=O)c1sc2c(c1C)c(=O)n(Cc1ccccc1)c(=O)n2Cc1ccccc1C,inactive: -50.5%
8,O=C(CNC(=O)c1ccccc1)OCc1cc(=O)n2nc(C3CCCCC3)sc2n1,inactive: -3.24%
9,Cc1ccc2sc(N(Cc3cccnc3)C(=O)CCS(=O)(=O)c3ccccc3)nc2c1C,inactive: -14.8%
10,COc1ccc(N2CCN(C(=O)CSc3nc(-c4ccc(C(C)C)cc4)no3)CC2)cc1,inactive: -29%
11,Cc1cccc(Nc2ncnc3onc(-c4ccc(Cl)cc4)c23)c1C,inactive: -0.829%
12,COc1ccc(C(=O)Nc2cccc(C(=O)OCc3cc(=O)n4nc(C5CC5)sc4n3)c2)cc1,inactive: 36.6%
13,Cc1cc(F)ccc1NC(=O)C(c1ccccc1)N1Cc2ccccc2C1=O (stereo not drawn),inactive: -8.45%
14,Nc1c(C(=O)Nc2ccc(F)cc2)sc2nc(-c3cccs3)cc(C(F)(F)F)c12,inactive: 2.87%
15,COC(=O)c1ccc([C@@H]2Nc3c(OC)ccc(C)c3[C@@H]3C=CC[C@@H]32)cc1,inactive: -17%
16,Cc1ccc(-n2c(=O)c3cccnc3n2CC(=O)NCc2ccc(Cl)cc2)cc1,inactive: 14.5%
17,Cc1ccc2oc3c(c(=O)c2c1)C(c1ccc(O)cc1)N(CCCN(C)C)C3=O (stereo not drawn),inactive: 8.86%
18,CCn1c2ccccc2c2cc(CN3CCN(Cc4ccc(Br)cc4)CC3)ccc21,inactive: -15.9%
19,CC1N=C2c3ccccc3N=C(SCC(=O)NCCc3ccc(Cl)cc3)N2C1=O (stereo not drawn),inactive: -3.54%
20,O=C(CCS(=O)(=O)c1cc2c(cc1Cl)NC(=O)CO2)NCc1ccc(Cl)cc1,inactive: 1.11%
21,O=c1cc(-c2ccccc2)c2ccc3c(c2o1)CN(Cc1cccc(Cl)c1)CO3,inactive: -30.6%

row,SMILES,activation
1,COc1ccc2[nH]cc(CCN=C(NC(=O)c3ccccc3F)Nc3nc(C)cc(C)n3)c2c1,inactive: -1.13%
2,CCOc1ccc(CC(=O)Nc2cccc(-c3nc4cccnc4s3)c2C)cc1,inactive: -21.5%
3,Cc1ccccc1NC(=O)Cn1c(=O)n(CCCC(=O)NCc2ccc3c(c2)OCO3)c(=O)c2ccccc21,inactive: -5.98%
4,Cc1c(C(=O)Nc2ccccc2Br)oc2ccc(S(=O)(=O)N3CCCCCC3)cc12,inactive: -6.61%
5,C=C(C)CSc1nc2sc3c(c2c(=O)n1Cc1ccccc1)CC(C)(CC)OC3 (stereo not drawn),inactive: -31.7%
6,Cc1ccc(-c2cn3cccnc3n2)cc1NC(=O)C(C)(C)Oc1ccc(Cl)cc1,inactive: -21.8%
7,COc1ccc(Cl)cc1NC(=O)c1c(NCc2ccc(C)o2)sc2c1CCC(C)C2 (stereo not drawn),inactive: -10.9%
8,C[C@]12CCC(=O)C=C1[C@@H]1C[C@@H]1[C@H]1[C@@H]3[C@@H]4C[C@@H]4[C@@]4(CCC(=O)O4)[C@@]3(C)CC[C@@H]12,inactive: 36.2%
9,CCC(C)NC(=O)CN1C(=O)c2cccnc2Sc2ccccc21 (stereo not drawn),inactive: -19.8%
10,COc1cccc(NCc2cccn2-c2nnc(N3CCC(C)CC3)s2)c1,inactive: -2.78%
11,COc1ccccc1NC(=O)CSc1ncc2c(n1)-c1ccccc1N(Cc1ccccc1C)S2(=O)=O,inactive: -10.8%
12,Cc1ccc(CN(C(=O)c2ccc(C(C)(C)C)cc2)c2ccccn2)o1,inactive: 1.24%
13,Cc1c(N)cccc1C(F)(F)F,inactive: 13%
14,CCOc1ccccc1CNC(=O)c1sc2ncccc2c1-n1cccc1,inactive: -2.68%
15,CC(C)CC(=O)Nc1ccc2nc(SCC(=O)N3CCc4ccccc43)sc2c1,inactive: 20.3%
16,CCOC(=O)C1CCCN(S(=O)(=O)c2cc(-c3cc(C)no3)ccc2OC)C1 (stereo not drawn),inactive: 30%
17,CCOc1cc(C2c3c(-c4cc(C)ccc4O)n[nH]c3C(=O)N2CCCOC(C)C)ccc1O (stereo not drawn),inactive: -20.6%
18,O=C(COC(=O)c1cc(-c2cccs2)nc2ccccc12)c1ccc(F)cc1,inactive: -9.47%
19,O=C(CSc1nnc(-c2ccc3c(c2)OCO3)o1)Oc1ccccc1,inactive: -2.79%
20,COc1cccc(Cn2c(SCC(=O)N3CCN(c4ccc(F)cc4)CC3)nc3ccccc32)c1,inactive: -12.2%
21,CCn1ccc2cc(S(=O)(=O)N3CCCN(C(=O)Nc4ccccc4F)CC3)ccc21,inactive: 11.2%

row,SMILES,activation
1,CCC(C)n1c(=O)c2sccc2n2c(CCCC(=O)N3CCN(c4ccccc4)CC3)nnc12 (stereo not drawn),inactive: -15.2%
2,CCOc1ccc(-n2c(SCC(=O)Nc3cc(C)ccc3C)nc3c([nH]c4ccccc43)c2=O)cc1,inactive: -3.53%
3,O=C(Cn1c(=O)n(Cc2nc(-c3ccccc3)no2)c(=O)c2cc3c(cc21)OCO3)Nc1ccccc1,inactive: -13.8%
4,COc1ccc(CNC(=O)c2sc3nc4n(c(=O)c3c2C)CCCC4)cc1,inactive: -26.9%
5,O=C(Nc1cc(-c2ccccc2)sc1C(=O)O)c1cccc(F)c1,active: 110%
6,Cc1ccc(Cn2cc(S(=O)(=O)c3cccc(C)c3)c(=O)c3cc(F)c(N4CCOCC4)cc32)cc1,inactive: -10.3%
7,COc1cccc(Cc2nc3ccccc3nc2SCC(=O)Nc2cccc(C)c2)c1,inactive: -21.8%
8,COc1ccc2cc([C@H](C)C(=O)O)ccc2c1,inactive: 39.8% and inactive: -4.58%
9,O=C(Cc1ccccc1)Nc1sc2c(c1C(=O)Nc1ccccc1Cl)CCCCC2,inactive: -10.4%
10,COc1ccc2c(c1)CCc1c(C(=O)Nc3cc(OC)c(Cl)cc3OC)noc1-2,inactive: 14%
11,COC(=O)c1cc(Nc2nc3ccccc3nc2NS(=O)(=O)c2ccc(C)cc2)ccc1Cl,active: 98.8%
12,CC(C)c1ccc(NC(=O)CSC2=Nc3ccccc3C3=NC(CCC(=O)NC4CCCCC4)C(=O)N23)cc1 (stereo not drawn),inactive: -17.1%
13,O=C(COc1ccccc1F)Nc1ccc2nc(SCC(=O)N3CCc4ccccc43)sc2c1,inactive: -9.99%
14,COc1ccc(NC(=O)CCc2c(C)nc3c(c2C)c(=O)n(C)c(=O)n3C)c(OC)c1,inactive: -6.15%
15,CCc1ccccc1NC(=O)Cn1nc2c3cc(F)ccc3n(Cc3cccc(C)c3)cc-2c1=O,inactive: -16.6%
16,CCOC(=O)c1c(NC(=O)c2cc(-c3ccccc3OC)on2)sc(C)c1C,inactive: -6.42%
17,CC1=C(C(=O)Nc2cccnc2)C(c2ccc(F)cc2)n2nc(-c3cccc(C)c3)nc2N1 (stereo not drawn),inactive: -8.97%
18,Cc1cc(NC(=O)C2CCN(S(=O)(=O)c3c(C)noc3C)CC2)ccc1Br,inactive: 21.1%
19,Cc1cc(C)c2nc(N(Cc3cccnc3)C(=O)CCS(=O)(=O)c3ccccc3)sc2c1,inactive: -21.3%
20,CCOc1ccc(-c2cn3c(n2)sc2cc(C(=O)NCCCN4CCCCCC4)ccc23)cc1,inactive: 4.03%
21,CCc1ccc2oc(C(=O)NCC(c3ccc(OC)cc3)N3CCCCC3)c(C)c2c1 (stereo not drawn),inactive: -5.53%

row,SMILES,activation
1,COc1ccc(-c2nc3nc(C)cc(C)n3c2Nc2c(C)cccc2C)cc1,inactive: -3.71%
2,COc1ccccc1CNC(=O)C1(c2cccs2)CCOCC1,inactive: 17%
3,N#Cc1c[nH]n2c(NC3CCCCC3)c(-c3ccc(F)cc3)nc12,inactive: -15.3%
4,CCc1ccc(OCC(=O)Nc2ccc3c(c2)c2ccccc2n3CC)cc1,inactive: -25.4%
5,Cc1cccc(-n2ccnc2SCC(=O)Nc2cccc3ccccc23)c1,inactive: 9.24%
6,CCc1ccc2[nH]cc(S(=O)(=O)c3ccc(C(C)C)cc3)c(=O)c2c1,active: 65.4%
7,Cc1cc(C)cc(OCCSc2nc3ccc(NC(=O)c4ccc5c(c4)OCO5)cc3s2)c1,inactive: -6.72%
8,O=C(COc1ccccc1Cl)Nc1ccc(OCc2cc(=O)n3ccsc3n2)cc1,inactive: -5.42%
9,Oc1ccccc1-c1nc(-c2cccs2)c(-c2cccs2)[nH]1,inactive: -19.5%
10,COc1ccc(NC(=O)C2CCC(CNS(=O)(=O)c3cccc4nsnc34)CC2)cc1OC (stereo not drawn),inactive: -4.32%
11,CCCOC(=O)c1cccc(Nc2nc(CCC)cc(=O)[nH]2)c1,active: 86.9%
12,Cc1ccc(CN2C(=O)C(O)(c3c(C)[nH]c4ccccc34)c3ccccc32)cc1 (stereo not drawn),active: 70%
13,COC(=O)c1cc2oc(C)cc2n1Cc1ccccc1Cl,inactive: -31.7%
14,CCOC(=O)Cn1c(=N)n(Cc2ccc(C(C)(C)C)cc2)c2ccccc21,inactive: 34%
15,COc1ccc(C(=O)n2nc(N)c3cc4ccc(C)cc4nc32)cc1OC,inactive: 0.377%
16,COCCNC(=O)CCCn1c(SCC(=O)Nc2ccc(F)cc2)nc2c(sc3ccccc32)c1=O,inactive: -5.16%
17,CC1CCN(C(=O)c2c(NC(=O)c3ccccc3Cl)sc3c2CCC(C(C)(C)C)C3)CC1 (stereo not drawn),inactive: -11%
18,COc1ccccc1C1NC(=O)c2n[nH]c(-c3cccs3)c21 (stereo not drawn),active: 104%
19,Cc1cc(C)cc(-n2ccnc2SCC(=O)Nc2cccc3ccccc23)c1,inactive: -19.7%
20,Cc1cc2nc(-c3ccc(OCc4ccccc4C)cc3)cc(C(F)(F)F)n2n1,inactive: 2.12%
